# From the supplement of paper PMC8728848
# This is one part of the list.
# B1: PX9961C-bth-497-22-497 (Bacteroides thetaiotaomicron) (protein)
# chain: DWLDLNTTSSVETGQAIVTLDDAQIALNGIYRLASGHSYYGDNYWYYGDCRAADVQARITKGDGKRVSPYYEYNVLASDNLNIVLPWNTVYKVIRQTNNLIQKIESGSIQSSDTKELNRIKSEALVMRGLSLFNLTRLFGMPYTNDKGASLGVPIETSPSDPTHKPSRSTVAQCYEQVVSDMSNALSGLRQETSNGYINYWAAQALLSRVYLNMGEYQKAYDAATDVIKNNGGRYQLYSYEEYPNVWGQDFQSESLFELYITLSEPSGGTGGEGAPMVYANEATVDWNNLILSEDFLNLLNEDPKDVRHCLTKESVIENNTGLPAAAMHEKVYLAKFPGKTGDDPKTNNICIIRLSEVYLNAAEAGLKKGTDIEEAQGYLNDIISRRTTDTSQQVSTETFTLDRILKERRKELVGEGEVFYDYLRNGLAIERKGSWHLETLKASNAQKIEATDLRIALPIPQSEIDANPNIQQNPR
# Legend:
# Assay in all cases: glycan array binding signal (z-score within array); higher = stronger binding
# Conditions in all cases: glycan notation: IUPAC condensed, linker removed
# [1] = biological target: GlcNAc(b1-2)Gal(b1-3)GalNAc
# Method in brief: (§1)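 The binding signal is a Z-score computed within each array. Data were drawn from 3228 arrays in the Consortium for Functional Glycomics database, restricted to those with a known protein sequence. Scores were averaged over arrays of the same protein sequence at different concentrations or buffers, and over linkers, and negative values can be taken as non-binding.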
# [2] = biological target: GlcNAc(b1-2)Man(a1-3)[GlcNAc(b1-2)Man(a1-6)]Man(b1-4)GlcNAc(b1-4)GlcNAc
# Method in brief: as §1
# [3] = biological target: GlcNAc(b1-2)Man(a1-3)[GlcNAc(b1-2)Man(a1-6)]Man(b1-4)GlcNAc(b1-4)[Fuc(a1-6)]GlcNAc
# Method in brief: as §1
# [4] = biological target: GlcNAc(b1-2)Man(a1-3)[GlcNAc(b1-4)][GlcNAc(b1-2)Man(a1-6)]Man(b1-4)GlcNAc(b1-4)GlcNAc
# Method in brief: as §1
# [5] = biological target: GlcNAc(b1-2)Man(a1-3)[GlcNAc(b1-4)][GlcNAc(b1-2)Man(a1-6)]Man(b1-4)GlcNAc(b1-4)[Fuc(a1-6)]GlcNAc
# Method in brief: as §1
# [6] = biological target: GlcNAc(b1-2)[GlcNAc(b1-4)]Man(a1-3)[GlcNAc(b1-2)Man(a1-6)]Man(b1-4)GlcNAc(b1-4)GlcNAc
# Method in brief: as §1
# [7] = biological target: GlcNAc(b1-2)[GlcNAc(b1-4)]Man(a1-3)[GlcNAc(b1-4)][GlcNAc(b1-2)Man(a1-6)]Man(b1-4)GlcNAc(b1-4)GlcNAc
# Method in brief: as §1
# [8] = biological target: GlcNAc(b1-2)[GlcNAc(b1-4)]Man(a1-3)[GlcNAc(b1-4)][GlcNAc(b1-2)[GlcNAc(b1-6)]Man(a1-6)]Man(b1-4)GlcNAc(b1-4)GlcNAc
# Method in brief: as §1
# [9] = biological target: GlcNAc(b1-2)[GlcNAc(b1-4)]Man(a1-3)[GlcNAc(b1-4)][GlcNAc(b1-2)[GlcNAc(b1-6)]Man(a1-6)]Man(b1-4)GlcNAc(b1-4)[Fuc(a1-6)]GlcNAc
# Method in brief: as §1
# [10] = biological target: GlcNAc(b1-2)[GlcNAc(b1-6)]Man(a1-6)[GlcNAc(b1-2)Man(a1-3)]Man(b1-4)GlcNAc(b1-4)GlcNAc
# Method in brief: as §1
# [11] = biological target: GlcNAc(b1-2)[GlcNAc(b1-6)]Man(a1-6)[GlcNAc(b1-2)Man(a1-3)]Man(b1-4)GlcNAc(b1-4)[Fuc(a1-6)]GlcNAc
# Method in brief: as §1
# [12] = biological target: GlcNAc(b1-2)[GlcNAc(b1-6)]Man(a1-6)[GlcNAc(b1-4)][GlcNAc(b1-2)Man(a1-3)]Man(b1-4)GlcNAc(b1-4)GlcNAc
# Method in brief: as §1
# [13] = biological target: GlcNAc(b1-3)Fuc
# Method in brief: as §1
# [14] = biological target: GlcNAc(b1-3)Gal
# Method in brief: as §1
# [15] = biological target: GlcNAc(b1-3)Gal(b1-3)GalNAc
# Method in brief: as §1
# [16] = biological target: GlcNAc(b1-3)Gal(b1-4)Glc
# Method in brief: as §1
# [17] = biological target: GlcNAc(b1-3)Gal(b1-4)GlcNAc
# Method in brief: as §1
# [18] = biological target: GlcNAc(b1-3)Gal(b1-4)GlcNAc(b1-2)Man(a1-3)[GlcNAc(b1-3)Gal(b1-4)GlcNAc(b1-2)Man(a1-6)]Man(b1-4)GlcNAc(b1-4)GlcNAc
# Method in brief: as §1
# [19] = biological target: GlcNAc(b1-3)Gal(b1-4)GlcNAc(b1-2)Man(a1-3)[GlcNAc(b1-3)Gal(b1-4)GlcNAc(b1-2)Man(a1-6)]Man(b1-4)GlcNAc(b1-4)[Fuc(a1-6)]GlcNAc
# Method in brief: as §1
# [20] = biological target: GlcNAc(b1-3)Gal(b1-4)GlcNAc(b1-2)[GlcNAc(b1-3)Gal(b1-4)GlcNAc(b1-6)]Man(a1-6)[GlcNAc(b1-3)Gal(b1-4)GlcNAc(b1-2)Man(a1-3)]Man(b1-4)GlcNAc(b1-4)GlcNAc
# Method in brief: as §1
# [21] = biological target: GlcNAc(b1-3)Gal(b1-4)GlcNAc(b1-3)Gal(b1-4)GlcNAc
# Method in brief: as §1
# [22] = biological target: GlcNAc(b1-3)Gal(b1-4)GlcNAc(b1-3)Gal(b1-4)GlcNAc(b1-2)Man(a1-3)[GlcNAc(b1-3)Gal(b1-4)GlcNAc(b1-3)Gal(b1-4)GlcNAc(b1-2)Man(a1-6)]Man(b1-4)GlcNAc(b1-4)GlcNAc
# Method in brief: as §1
# [23] = biological target: GlcNAc(b1-3)Gal(b1-4)GlcNAc(b1-3)Gal(b1-4)GlcNAc(b1-2)Man(a1-3)[GlcNAc(b1-3)Gal(b1-4)GlcNAc(b1-3)Gal(b1-4)GlcNAc(b1-2)Man(a1-6)]Man(b1-4)GlcNAc(b1-4)[Fuc(a1-6)]GlcNAc
# Method in brief: as §1
# [24] = biological target: GlcNAc(b1-3)Gal(b1-4)GlcNAc(b1-3)Gal(b1-4)GlcNAc(b1-2)[GlcNAc(b1-3)Gal(b1-4)GlcNAc(b1-3)Gal(b1-4)GlcNAc(b1-6)]Man(a1-6)[GlcNAc(b1-3)Gal(b1-4)GlcNAc(b1-3)Gal(b1-4)GlcNAc(b1-2)Man(a1-3)]Man(b1-4)GlcNAc(b1-4)[Fuc(a1-6)]GlcNAc
# Method in brief: as §1
# [25] = biological target: GlcNAc(b1-3)Gal(b1-4)GlcNAc(b1-3)Gal(b1-4)GlcNAc(b1-3)Gal(b1-4)GlcNAc(b1-2)Man(a1-3)[GlcNAc(b1-3)Gal(b1-4)GlcNAc(b1-3)Gal(b1-4)GlcNAc(b1-3)Gal(b1-4)GlcNAc(b1-2)Man(a1-6)]Man(b1-4)GlcNAc(b1-4)GlcNAc
# Method in brief: as §1
# [26] = biological target: GlcNAc(b1-3)Gal(b1-4)GlcNAc(b1-3)Gal(b1-4)GlcNAc(b1-3)Gal(b1-4)GlcNAc(b1-2)Man(a1-3)[GlcNAc(b1-3)Gal(b1-4)GlcNAc(b1-3)Gal(b1-4)GlcNAc(b1-3)Gal(b1-4)GlcNAc(b1-2)Man(a1-6)]Man(b1-4)GlcNAc(b1-4)[Fuc(a1-6)]GlcNAc
# Method in brief: as §1
# [27] = biological target: GlcNAc(b1-3)Gal(b1-4)GlcNAc(b1-3)Gal(b1-4)GlcNAc(b1-3)Gal(b1-4)GlcNAc(b1-2)[GlcNAc(b1-3)Gal(b1-4)GlcNAc(b1-3)Gal(b1-4)GlcNAc(b1-3)Gal(b1-4)GlcNAc(b1-6)]Man(a1-6)[GlcNAc(b1-3)Gal(b1-4)GlcNAc(b1-3)Gal(b1-4)GlcNAc(b1-3)Gal(b1-4)GlcNAc(b1-2)Man(a1-3)]Man(b1-4)GlcNAc(b1-4)[Fuc(a1-6)]GlcNAc
# Method in brief: as §1
# [28] = biological target: GlcNAc(b1-3)Gal(b1-4)GlcNAc(b1-3)Gal(b1-4)GlcNAc(b1-3)Gal(b1-4)GlcNAc(b1-3)Gal(b1-4)GlcNAc(b1-2)Man(a1-3)[GlcNAc(b1-3)Gal(b1-4)GlcNAc(b1-3)Gal(b1-4)GlcNAc(b1-3)Gal(b1-4)GlcNAc(b1-3)Gal(b1-4)GlcNAc(b1-2)Man(a1-6)]Man(b1-4)GlcNAc(b1-4)GlcNAc
# Method in brief: as §1
# [29] = biological target: GlcNAc(b1-3)Gal(b1-4)GlcNAc(b1-3)Gal(b1-4)GlcNAc(b1-3)Gal(b1-4)GlcNAc(b1-3)Gal(b1-4)GlcNAc(b1-2)Man(a1-3)[GlcNAc(b1-3)Gal(b1-4)GlcNAc(b1-3)Gal(b1-4)GlcNAc(b1-3)Gal(b1-4)GlcNAc(b1-3)Gal(b1-4)GlcNAc(b1-2)Man(a1-6)]Man(b1-4)GlcNAc(b1-4)[Fuc(a1-6)]GlcNAc
# Method in brief: as §1
# [30] = biological target: GlcNAc(b1-3)Gal(b1-4)GlcNAc(b1-3)Gal(b1-4)GlcNAc(b1-3)Gal(b1-4)GlcNAc(b1-3)Gal(b1-4)GlcNAc(b1-2)[GlcNAc(b1-3)Gal(b1-4)GlcNAc(b1-3)Gal(b1-4)GlcNAc(b1-3)Gal(b1-4)GlcNAc(b1-3)Gal(b1-4)GlcNAc(b1-6)]Man(a1-6)[GlcNAc(b1-3)Gal(b1-4)GlcNAc(b1-3)Gal(b1-4)GlcNAc(b1-3)Gal(b1-4)GlcNAc(b1-3)Gal(b1-4)GlcNAc(b1-2)Man(a1-3)]Man(b1-4)GlcNAc(b1-4)[Fuc(a1-6)]GlcNAc
# Method in brief: as §1
# [31] = biological target: GlcNAc(b1-3)Gal(b1-4)GlcNAc(b1-3)Gal(b1-4)GlcNAc(b1-3)GalNAc
# Method in brief: as §1
# [32] = biological target: GlcNAc(b1-3)Gal(b1-4)GlcNAc(b1-3)GalNAc
# Method in brief: as §1
# [33] = biological target: GlcNAc(b1-3)Gal(b1-4)GlcNAc(b1-3)[GlcNAc(b1-3)Gal(b1-4)GlcNAc(b1-3)]GalNAc
# Method in brief: as §1
# [34] = biological target: GlcNAc(b1-3)Gal(b1-4)GlcNAc(b1-6)[Gal(b1-3)]GalNAc
# Method in brief: as §1
# [35] = biological target: GlcNAc(b1-3)Gal(b1-4)GlcNAc(b1-6)[GlcNAc(b1-3)Gal(b1-3)]GalNAc
# Method in brief: as §1
# [36] = biological target: GlcNAc(b1-3)Gal(b1-4)GlcNAc(b1-6)[GlcNAc(b1-3)]Gal(b1-4)GlcNAc
# Method in brief: as §1
# [37] = biological target: GlcNAc(b1-3)GalNAc
# Method in brief: as §1
binder,measurement,setting,value
B1,glycan array binding signal (z-score),[1],-0.409
same,glycan array binding signal (z-score),[2],-0.317
same,glycan array binding signal (z-score),[3],-0.706
same,glycan array binding signal (z-score),[4],-0.561
same,glycan array binding signal (z-score),[5],0.293
same,glycan array binding signal (z-score),[6],-0.118
same,glycan array binding signal (z-score),[7],-0.464
same,glycan array binding signal (z-score),[8],-0.101
same,glycan array binding signal (z-score),[9],-0.102
same,glycan array binding signal (z-score),[10],-0.276
same,glycan array binding signal (z-score),[11],0.069
same,glycan array binding signal (z-score),[12],-0.383
same,glycan array binding signal (z-score),[13],0.476
same,glycan array binding signal (z-score),[14],-1.04
same,glycan array binding signal (z-score),[15],0.356
same,glycan array binding signal (z-score),[16],1.23
same,glycan array binding signal (z-score),[17],-0.292
same,glycan array binding signal (z-score),[18],-0.082
same,glycan array binding signal (z-score),[19],0.22
same,glycan array binding signal (z-score),[20],0.655
same,glycan array binding signal (z-score),[21],-0.377
same,glycan array binding signal (z-score),[22],1.6
same,glycan array binding signal (z-score),[23],0.462
same,glycan array binding signal (z-score),[24],-0.054
same,glycan array binding signal (z-score),[25],0.098
same,glycan array binding signal (z-score),[26],-0.233
same,glycan array binding signal (z-score),[27],-0.036
same,glycan array binding signal (z-score),[28],0.104
same,glycan array binding signal (z-score),[29],2.24
same,glycan array binding signal (z-score),[30],-0.034
same,glycan array binding signal (z-score),[31],0.131
same,glycan array binding signal (z-score),[32],-0.166
same,glycan array binding signal (z-score),[33],-0.634
same,glycan array binding signal (z-score),[34],1.56
same,glycan array binding signal (z-score),[35],-0.702
same,glycan array binding signal (z-score),[36],-0.862
same,glycan array binding signal (z-score),[37],-0.378
